Measurements from paper PMC4336329 (PLoS ONE, 2015).
Screen size: about 310,000 compounds; about 2,200 (0.71%) showed an effect of 50% or more. The effect is printed as a negative number. This is one part of the list.

Target: human ether-à-go-go-related gene (hERG) potassium channel (human, UniProt Q12809)
Test: primary screen, population patch clamp on CHO cells stably expressing hERG

human ether-à-go-go-related gene (hERG) potassium channel, sequence (Q12809 whole entry, looked up): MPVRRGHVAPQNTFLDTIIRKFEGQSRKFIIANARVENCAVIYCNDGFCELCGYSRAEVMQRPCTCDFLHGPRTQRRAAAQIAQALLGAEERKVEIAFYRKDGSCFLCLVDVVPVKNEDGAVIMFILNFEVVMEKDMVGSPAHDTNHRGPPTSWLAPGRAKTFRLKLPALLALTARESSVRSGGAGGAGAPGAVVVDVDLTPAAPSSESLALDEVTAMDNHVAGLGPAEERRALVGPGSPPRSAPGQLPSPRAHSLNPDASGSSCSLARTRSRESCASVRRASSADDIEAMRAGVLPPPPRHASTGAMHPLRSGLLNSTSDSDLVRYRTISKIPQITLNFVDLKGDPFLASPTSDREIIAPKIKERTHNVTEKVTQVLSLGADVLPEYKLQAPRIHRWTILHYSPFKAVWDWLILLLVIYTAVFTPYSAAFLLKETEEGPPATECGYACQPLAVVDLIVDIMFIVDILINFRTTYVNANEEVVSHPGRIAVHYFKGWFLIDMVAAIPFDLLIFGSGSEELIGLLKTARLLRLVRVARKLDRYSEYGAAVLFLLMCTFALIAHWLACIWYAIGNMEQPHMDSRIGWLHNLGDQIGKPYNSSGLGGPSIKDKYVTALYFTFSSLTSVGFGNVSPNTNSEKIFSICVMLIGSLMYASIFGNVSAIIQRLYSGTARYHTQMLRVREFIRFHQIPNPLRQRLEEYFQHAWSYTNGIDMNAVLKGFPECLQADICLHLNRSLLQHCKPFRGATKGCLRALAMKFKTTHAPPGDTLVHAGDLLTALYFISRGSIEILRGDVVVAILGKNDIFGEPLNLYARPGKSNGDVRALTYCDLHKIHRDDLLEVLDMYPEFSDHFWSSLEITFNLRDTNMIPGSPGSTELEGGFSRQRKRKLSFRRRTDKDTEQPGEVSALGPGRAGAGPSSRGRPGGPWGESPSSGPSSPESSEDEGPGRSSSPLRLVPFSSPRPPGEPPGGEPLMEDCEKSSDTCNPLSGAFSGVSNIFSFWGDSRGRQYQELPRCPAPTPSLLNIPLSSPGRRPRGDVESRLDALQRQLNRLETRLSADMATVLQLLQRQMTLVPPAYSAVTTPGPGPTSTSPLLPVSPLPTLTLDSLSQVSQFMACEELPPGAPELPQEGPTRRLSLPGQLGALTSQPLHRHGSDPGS

| Compound | hERG current change (%, negative = inhibition) at 1uM |
| --- | --- |
| Cn1c(NC(=O)c2ccc(S(=O)(=O)N3CCOCC3)cc2)cc(=O)n(C)c1=O | 5.35% |
| O=C(NCCN1CCN(S(=O)(=O)c2ccccc2)CC1)C(=O)Nc1ccc(F)cc1 | 8.68% |
| O=C(CSc1ncnc2nc[nH]c12)c1ccc2ccccc2c1 | 8.36% |
| CCOC(=O)c1c(-c2ccccc2)oc2ccc(OCC(=O)NNC(=O)CCC(=O)O)cc12 | 16.3% |
| COc1ccc(C2/C(=C(\O)c3cccc(OC)c3)C(=O)C(=O)N2c2ccccn2)cc1 (stereo not drawn) | 0.101% |
| Cc1oc(-c2cccs2)nc1CN1CCC(C(=O)N2CCCC2)CC1 | 3.24% |
| COc1ccc(N2CCN(C(=O)Cc3ccc(OC)c(OC)c3)CC2)cc1 | 16.2% |
| Nc1sc(-c2ccccc2)cc1C(=O)N/N=C/c1ccc(Cl)cc1 | 8.22% |
| CC1CCCCN1C(=S)NC(=O)c1cccs1 (stereo not drawn) | 13.1% |
| Cc1c(NC(=O)c2ccc(-c3cccc([N+](=O)[O-])c3)o2)c(=O)n(-c2ccccc2)n1C | 7.82% |
| COC(=O)c1cc(C(=O)OCC(=O)NC2CCCCCCC2)cc([N+](=O)[O-])c1 | 5.85% |
| COCCN1C(=O)C(=O)/C(=C(/O)c2ccc(S(=O)(=O)N3CCOCC3)cc2)C1c1cccc([N+](=O)[O-])c1 (stereo not drawn) | 14.4% |
| Cc1ccccc1CSc1nnc(-c2ccccn2)n1C | 10.8% |
| COc1ccc(C(=O)c2c[nH]c(C(=O)NCC3CCCO3)c2)cc1 (stereo not drawn) | 3.6% |
| CCc1cccc(C)c1NC(=S)NCC(c1cccnc1)N(C)C (stereo not drawn) | 8.72% |
| Cc1ccc(-n2c(SCC(=O)NCc3cccs3)nnc2-c2ccoc2C)cc1 | -16.5% |
| COc1ccc(-c2cc3c(=O)n(CC(=O)N4CCCCC4)ncn3n2)cc1 | 16.6% |
| CC(C)Oc1ccc(C(=O)Nc2ncn[nH]2)cc1 | 13.2% |
| CC1(C)Cc2c(sc3c2C(=O)NC(c2cccnc2)N3)CO1 (stereo not drawn) | 3.36% |
| Cc1ccc(CNC(=O)CSc2ccc(-c3ccccn3)nn2)cc1 | 6.71% |
| C[n+]1cccc(/C=N/NC(=O)CC23CC4CC(CC(C4)C2)C3)c1.[I-] | 12% |
| O=c1cc(CSc2nc(NCc3ccccc3)c3ccccc3n2)nc2ccc(Cl)cn12 | -30.2% |

| Compound | hERG current change (%, negative = inhibition) at 1uM |
| --- | --- |
| CCCCN1C(=O)C(NC(C)=O)c2cc(Br)ccc21 (stereo not drawn) | -0.178% |
| COc1ccc2c(c1)C(c1ccc([N+](=O)[O-])cc1)=NNC(c1ccco1)=N2 | -19% |
| CC(C)n1c(CN2CCN(C)CC2)nc2c1c(=O)n(C)c(=O)n2C | 12.3% |
| O=C(N/C(=C\c1cccnc1)c1nc2ccccc2[nH]1)c1cccc(Br)c1 | -3.04% |
| Cc1ccc(NC2CCCN(C(=O)CCc3cn[nH]c3)C2)cc1C (stereo not drawn) | 7.09% |
| CC(=O)c1c(C)[nH]c(C(=O)Nc2cc(C)ccc2C)c1C | 4.2% |
| O=C(CCl)Nc1ccccc1C(=O)NCc1ccccc1 | 14.3% |
| Cc1sc2ncnc(SCC(=O)N3CCCC(C(F)(F)F)C3)c2c1C (stereo not drawn) | 3.21% |
| O=C(Nc1ccc(Br)cc1F)c1sccc1-n1cccc1 | 10.3% |
| O=C(NCc1ccccn1)C1COc2ccccc2O1 (stereo not drawn) | 10.3% |
| CC(=O)c1ccc(N2CCN(C(=O)C3CCN(S(=O)(=O)c4ccc5c(c4)CC(C)N5C(=O)C4CC4)CC3)CC2)cc1 (stereo not drawn) | -4.91% |
| CCN1C(=O)N(CC)C(O)(c2ccccc2)C1(O)c1ccccc1 (stereo not drawn) | 5.39% |
| CCOc1ccccc1C(=O)Nc1nnc(SCC(=O)N2CCOCC2)s1 | 15.5% |
| CCN(CC(=O)NCc1cccs1)C(=O)CCC(=O)c1ccc(F)cc1 | -34.5% |
| CC(=O)N1CCN(c2ccc(NC(=S)NC(=O)c3ccccc3)cc2)CC1 | 5.91% |
| CCc1ccc(-c2nc(SCC(=O)NC3CCCC3)n[nH]2)cc1 | 9.28% |
| CC1(C)CC2CC(C)(CN2c2ncnc3ccccc23)C1 (stereo not drawn) | -1.85% |
| CC(C)CC(c1nnnn1Cc1ccco1)N1CCN(c2cccc(Cl)c2)CC1 (stereo not drawn) | 12.6% |
| COc1ccc(NC(=O)CSc2nc(-c3ccco3)nc3cc(=O)[nH]n23)cc1Cl | 0.811% |
| Cc1ccc(S(=O)(=O)n2c(C)nc3cc(C)ccc32)cc1 | 3.93% |
| O=C(COc1cccc2ccccc12)N1CCN(c2ccccc2)CC1 | 10.5% |
| C/C(=N\NC(=O)c1nnn(-c2nonc2N)c1-c1cccs1)c1ccc(C)cc1 | -3.6% |

| Compound | hERG current change (%, negative = inhibition) at 1uM |
| --- | --- |
| CCN1CCc2nc(N)oc2CC1.Cl | 5.81% |
| COc1ccc(/C=N/NC(=S)Nc2ccccc2)cc1 | 19.4% |
| O=C(CCN=C1NS(=O)(=O)c2ccccc21)Nc1ccc(Cl)cc1F | 15.3% |
| Cc1cc(NC(=O)Nc2ccc(Cl)c(Cl)c2)no1 | 8.41% |
| COc1cc(S(=O)(=O)Nc2ccccn2)ccc1F | 9.64% |
| CC(=O)OCC(=O)N1CCN(c2ccc([N+](=O)[O-])cc2)CC1 | -11.8% |
| O=C(CN1CCOC1=O)N1CCCC(N2CCN(c3cccc(C(F)(F)F)c3)CC2)C1 (stereo not drawn) | 6.7% |
| C=CCNC(=S)NNC(=O)Cn1c(-c2ccccc2)cc(=O)n2ncnc12 | 11.1% |
| COc1ccc(CCN=C(N)NS(=O)(=O)c2ccc(OC)c(OC)c2)cc1OC | 6.25% |
| O=P(O)(c1ccccc1)c1ccccc1O | -4.6% |
| COc1ccc(NC2C=CS(=O)(=O)C2)c(OC)c1 (stereo not drawn) | 13.8% |
| O=C(c1cccc([N+](=O)[O-])c1)c1ccc2[nH]c(=O)[nH]c2c1 | 15% |
| O=S(=O)(/N=C(/NC(=S)Nc1ccccc1)c1ccccc1)c1ccc(Cl)cc1 | 13.7% |
| COCCNC(=S)N(CCc1c(C)[nH]c2ccc(F)cc12)Cc1cccs1 | 14.3% |
| CCCC(=O)Nc1ccccc1NC(=O)c1ccc2c(c1)OCO2 | 18.1% |
| c1ccc(Cn2c(Sc3nnnn3-c3ccccc3)nnc2-c2ccccc2)cc1 | -10.2% |
| O=C(Nc1cc(=O)[nH]c2nc(-c3ccc(Cl)cc3)nn12)c1ccccc1 | 8.93% |
| CCOc1c(Cl)cc(/C=C/C(=O)N(CC)CC(=O)NCc2cccs2)cc1OC | -11% |
| CCOC(=O)c1ccc(Nc2sc(C(=O)c3cccc([N+](=O)[O-])c3)c(N)c2C#N)cc1 | 14.8% |
| COc1ccccc1CNC(=O)C(Cc1c[nH]c2ccccc12)NC(=O)OCc1ccccc1 (stereo not drawn) | 1.01% |
| CCOc1ccc(C(=O)c2nc3c(n2O)CCCC3)cc1 | 8.95% |
| COc1ccc(-c2n[nH]c(=S)n2C2CCCCC2)cc1 | 13.6% |

| Compound | hERG current change (%, negative = inhibition) at 1uM |
| --- | --- |
| Cc1ccc(CSC2=NCCN2C(=O)C2CC2)cc1 | 11.7% |
| CCOC(=O)c1sc2ccccc2c1NC(=O)c1coc2ccccc2c1=O | 6.69% |
| CCOCCCn1cnc2c([nH]c3cc(OC)ccc32)c1=O | -0.655% |
| FCCCOc1ccc(-c2nccc(-c3ccc(Cl)cc3)n2)cc1 | 19.6% |
| C=CCn1c(SCC(=O)NC2CCCc3ccccc32)nnc1-c1ccncc1 (stereo not drawn) | -0.835% |
| CCOc1ccc(-n2c(Cc3cc(=O)[nH]c(=O)[nH]3)nnc2SCC(=O)Nc2nnc(C)s2)cc1 | 16.6% |
| COc1ccc2c(c1)[nH]c1c(=O)n(/N=C/c3ccc(OC)c(CN4CCCCC4)c3)cnc12 | -16.6% |
| O=S(=O)(Nc1ccc(-c2nc3cccnc3s2)cc1)c1ccc(Cl)s1 | 6.41% |
| CN(Cc1ccco1)C(=O)Cn1c(=O)oc2cc(S(=O)(=O)NCc3ccccc3)ccc21 | 7.85% |
| O=C(c1cnn(C(=O)c2cccc(S(=O)(=O)N3CCOCC3)c2)c1)c1cc(Cl)cc(Cl)c1O | -0.63% |
| CCCCc1ccc(NS(=O)(=O)N(C)C)cc1 | -11.8% |
| Cc1nc(COc2ccccc2Cl)sc1-c1ccnc(N)n1 | 7.74% |
| Cc1ccc(-n2c(=O)c3c4c(sc3n3c(C)nnc23)COC(C(C)C)C4)cc1 (stereo not drawn) | 7.9% |
| COc1ccc(NC(=O)c2cccc(S(=O)(=O)N(C)c3ccccc3)c2)cn1 | 9.94% |
| Cc1ccccc1N(C)C(=O)C1CCCN(c2ncnc3c2nc2n3CCCCC2)C1 (stereo not drawn) | 8.72% |
| CCCCN(C)CCNC(=O)CN1C(=O)CSc2ccc(S(=O)(=O)N3CCOCC3)cc21 | 9.23% |
| Cc1cccc(CN2CCN(Cc3ccc4nonc4c3)CC2CCO)n1 (stereo not drawn) | 1.82% |
| CCOc1cc(/C=N/Nc2nc3ccccc3[nH]2)cc(Br)c1OCC(=O)N(C)C | 7.39% |
| Cc1cccc(NC(=O)C(=O)NCCc2c[nH]c3ccccc23)c1C | 6.6% |
| COc1ccc(S(=O)(=O)NNC(=O)Nc2ccccc2OC)c(OC)c1 | 12.6% |
| COC(=O)c1cc(OC)nc(OC)c1 | 17.9% |
